This is one part of the list. One pool of 16,384 single-stranded DNAs met each Rep nickase domain in vitro at 3 µM enzyme and 37 °C for 1 h; the strands have 90 letters, of which the middle is given. Uncut reads are compared with the no-enzyme pool on a log2 scale; strong cutting gives strongly negative numbers. There is no active / inactive call. The scaling is to total reads; where an enzyme cuts many sequences, the uncut ones exceed 0.
Experiments:
Assay in all cases: uncleaved DNA left, log2 of reads against the no-enzyme library (log2 ratio); higher = less cleavage (more negative = more Rep cleavage of the k-mer); sequences stand for … in CTCGTCCG…ACCGGAGA
[1] = tested on: T1, Rep nickase domain of Muscovy duck circovirus
T1 sequence (protein, residues 1-111, tag omitted): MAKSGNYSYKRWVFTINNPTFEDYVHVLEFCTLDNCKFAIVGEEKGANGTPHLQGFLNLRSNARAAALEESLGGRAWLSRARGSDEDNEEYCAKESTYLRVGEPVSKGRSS
Procedure: (§1)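 A pool of 90-nt single-stranded DNAs with seven random bases just before the constant AC of the nick site (name = the seven bases) was cut by 3 µM recombinant His6-SUMO-tagged Rep nickase domain (300 nM DNA, 50 mM HEPES pH 8.0, 50 mM NaCl, 1 mM MnCl2, 1 h, 37 °C, three replicates). Uncut DNA was amplified and sequenced.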

[2] = tested on: T2, Rep nickase domain of banana bunchy top virus
T2 sequence (protein, residues 1-94, tag omitted): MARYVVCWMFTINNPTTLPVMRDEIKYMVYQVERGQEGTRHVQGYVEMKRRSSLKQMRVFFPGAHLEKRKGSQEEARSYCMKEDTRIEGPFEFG
Procedure: as §1

[3] = tested on: T3, Rep nickase domain of cabbage leaf curl virus
T3 sequence (protein, residues 1-116, tag omitted): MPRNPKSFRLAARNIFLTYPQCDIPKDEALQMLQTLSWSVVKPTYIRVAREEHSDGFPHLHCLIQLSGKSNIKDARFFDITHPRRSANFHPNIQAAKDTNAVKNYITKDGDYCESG
Procedure: as §1

[4] = tested on: T4, Rep nickase domain of chickpea chlorotic dwarf virus
T4 sequence (protein, residues 1-124, tag omitted): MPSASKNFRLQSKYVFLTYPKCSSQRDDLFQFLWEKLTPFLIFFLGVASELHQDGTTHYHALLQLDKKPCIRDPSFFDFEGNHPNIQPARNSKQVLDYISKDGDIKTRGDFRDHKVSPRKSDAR
Procedure: as §1

[5] = tested on: T5, Rep nickase domain of faba bean necrotic yellows virus
T5 sequence (protein, residues 1-98, tag omitted): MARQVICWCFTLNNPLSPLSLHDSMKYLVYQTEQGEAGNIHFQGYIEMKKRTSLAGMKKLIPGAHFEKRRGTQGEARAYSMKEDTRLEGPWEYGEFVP
Procedure: as §1

[6] = tested on: T6, Rep nickase domain of maize striate mosaic virus
T6 sequence (protein, residues 1-117, tag omitted): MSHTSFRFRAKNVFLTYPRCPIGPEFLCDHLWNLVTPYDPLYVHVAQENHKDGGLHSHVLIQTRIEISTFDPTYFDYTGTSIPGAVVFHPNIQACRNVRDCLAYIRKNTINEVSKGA
Procedure: as §1

[7] = tested on: T7, Rep nickase domain of porcine circovirus 2
T7 sequence (protein, residues 2-116, tag omitted): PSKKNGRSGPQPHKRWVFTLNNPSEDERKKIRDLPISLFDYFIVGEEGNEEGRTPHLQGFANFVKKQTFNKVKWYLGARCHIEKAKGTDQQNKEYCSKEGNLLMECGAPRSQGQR
Procedure: as §1

[8] = tested on: T8, Rep nickase domain of tomato yellow leaf curl virus
T8 sequence (protein, residues 1-136, tag omitted): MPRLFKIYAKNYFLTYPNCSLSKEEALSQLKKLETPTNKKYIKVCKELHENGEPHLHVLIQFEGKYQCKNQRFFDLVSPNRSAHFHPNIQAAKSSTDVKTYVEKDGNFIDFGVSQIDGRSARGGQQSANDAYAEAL
Procedure: as §1

[9] = tested on: T9, Rep nickase domain of wheat dwarf virus
T9 sequence (protein, residues 1-137, tag omitted): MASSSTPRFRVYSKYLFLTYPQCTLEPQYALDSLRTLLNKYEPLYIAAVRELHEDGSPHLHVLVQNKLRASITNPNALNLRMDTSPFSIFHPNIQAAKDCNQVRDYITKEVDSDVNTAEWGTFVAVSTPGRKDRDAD
Procedure: as §1

Sequence	uncleaved DNA left (log2) [1]	uncleaved DNA left (log2) [2]	uncleaved DNA left (log2) [3]	uncleaved DNA left (log2) [4]	uncleaved DNA left (log2) [5]	uncleaved DNA left (log2) [6]	uncleaved DNA left (log2) [7]	uncleaved DNA left (log2) [8]	uncleaved DNA left (log2) [9]
CGGATGG	-0.0661	-0.118	-0.0789	0.233	-0.047	-0.0919	0.0289	-0.13	-0.0422
GTAATTA	-0.102	0.0124	0.182	0.757	-0.0601	1.52	-0.0169	0.0466	-0.0548
GCATGCC	0.0218	0.0274	-0.216	-0.0917	0.0175	-0.718	0.162	0.0844	-0.0513
TAGCTTC	0.052	0.124	0.16	-0.391	0.0574	-0.406	-0.948	0.0675	0.0518
CAGCGAG	-0.0601	0.00566	-0.129	0.0854	0.0798	-0.452	0.214	0.0767	-0.0549
AAGGGCG	0.0571	0.0977	-0.808	0.0692	0.0481	-0.801	0.0917	0.0604	-0.0943
ATACACG	-0.0271	0.0159	-0.903	-0.155	0.0107	-1.03	0.0949	-0.0943	-0.159
GGAATCA	0.0906	0.146	0.639	1.4	-0.0416	1.96	0.199	0.176	0.237
GGGTGCC	-0.00469	-0.0196	0.661	1.53	-0.0155	1.94	0.173	0.01	0.0686
GACAGGC	-0.0339	0.0871	0.228	0.708	-0.0122	-0.119	0.148	0.0625	0.0287
TAACATG	0.0676	0.039	-0.538	-1.54	0.0529	-1.04	0.231	0.0599	0.099
GTTAGAG	0.0238	-0.0561	-0.136	0.0718	-0.0325	-0.52	0.0857	0.0644	0.0106
TAAATGA	-0.0338	0.0623	-0.289	-2.01	-0.102	-0.782	0.0382	-0.0211	-0.151
ACGACAA	-0.0488	-0.038	-0.0214	0.343	0.104	0.168	0.0541	-0.0263	0.0976
TACTCGC	0.00297	-0.0871	-0.639	-0.995	-0.0302	-1.09	-0.439	0.0556	-0.025
GGTATGA	0.0542	0.155	0.583	1.31	0.146	1.83	0.245	0.166	0.118
CGACATC	0.103	0.177	0.294	0.923	0.0425	1.03	0.247	0.104	0.308
TATTGAA	-2.59	-0.496	-0.353	-1.13	-0.0606	-1.02	-2.43	0.0819	-0.0735
GCCGTGG	0.239	0.0852	0.259	0.845	0.0466	0.405	0.339	0.127	0.101
GGCTAGT	-0.0907	0.0265	0.28	0.752	-0.0586	1.64	-1.25	0.0203	0.0763
TTGGTCT	0.128	0.0157	0.0944	-1.15	0.0841	-0.0827	0.0358	0.115	0.0755
AGGAGCA	-0.0876	-0.00909	-0.068	0.145	-0.0164	-0.298	-1.28	-0.148	-0.0238
GTGCGAA	0.0337	0.0581	-0.118	0.251	-0.0215	-0.487	0.0383	0.046	-0.13
TTGCAAA	0.124	0.212	-0.215	0.0604	0.0756	-0.67	0.274	0.251	0.282
GTTTGGG	0.0338	-0.0797	-0.466	-0.415	0.0462	-0.591	0.047	0.0641	-0.121
ATCTATC	0.0995	-0.0307	0.0483	0.0344	-0.0549	-0.575	0.0108	0.0763	0.0843
TTCCAGC	-0.0667	-0.0339	-0.153	-0.479	0.00238	-0.872	0.0566	0.0297	-0.0129
GAACTAC	0.0586	0.113	0.297	-0.977	0.177	1.06	0.202	0.11	0.153
ATAGCAG	0.128	-0.00247	-0.539	-0.412	0.102	-0.965	0.26	0.0561	-0.0362
AAATCGG	0.0256	0.0606	0.385	1.42	-0.0137	1.49	0.0858	-0.0591	-0.00949
